Measured values reported in patent US4897384A, “Drug preparations of reduced toxicity” (priority 1986, dated 1990).
Converted amounts (≈) assume the structure as drawn. Read-outs that look alike come from different tables or passages of the source. Numbered stars: 1 amine (or outer) side, 2 acyl side, 3 side chain; on linkers, the order of the positions; unused ones are H or OH. Bridge positions count the residues as written; N and C are the ends. Square brackets hold non-standard residues; d marks the D form. Peptide text beside a SMILES is read from it. * marks the point of attachment. X1 = NC1=N[C@@H]([C@H](N[*:1])C(=O)[*:2])C[C@H](O)N1; ΔAla(Z-3-ureido) = NC(=O)N/C=C(\N)C(=O)O; β3hOrn = NCCC[C@H](N)CC(=O)*; Dap = NC[C@H](N)C(=O)O

What was measured:
[1] = in vitro; cited from earlier work
[2] = Solubility, precipitation and stability of amphotericin B preparations; details: CHCl3 added dropwise to aqueous solution
Swiss Webster mice [3] = details: for Lethality of ligand administered without streptomycin: ligand alone, s.c.; for Lethality No. Dead/No. Inoculated / Percent Lethality: with streptomycin 1000 mg/kg s.c.; for Effectiveness in reducing aminoglycoside toxicity (in words): mouse, in vivo
in vivo = details: mouse, sc, 1000 mg/kg
Swiss Webster mice [4] = test: Appearance of blue tail after intravenous administration of amphotericin B preparations (Table V); assay type: in vivo, mouse (female Swiss Webster); details: i.v. tail vein, groups of four mice
C. albicans = test: Minimum inhibitory concentration for C. albicans (Table VI); assay type: cell-based; details: 50% growth inhibition, overnight 35° C.
[5] = Cytotoxicity for L-cells (Table VI); assay type: cell-based; details: mouse
C-reactive protein = details: cited from earlier work
[6] = Acute lethality of subcutaneous streptomycin with and without ligand (Table I); assay type: in vivo, mouse (Swiss Webster); details: mouse, in vivo, sc, 1000 mg/kg, read-out: Percent Lethality
Swiss Webster mice [7] = test: as above; assay type: in vivo, mouse (Swiss Webster)
[8] = in vitro; cited from earlier work; remark: listed apart in the source
DNA = details: cited from earlier work
[9] = crystal structure analysis; cited from earlier work
[10] = Precipitation of ligand when mixed with the aminoglycoside; details: mixed with streptomycin in distilled water
neuromuscular junction = details: in vivo; cited from earlier work
kidney = details: in vivo; cited from earlier work
L cells = test: Cytotoxicity for L-cells (Table VI); assay type: cell-based; details: mouse, 72 h
[11] = molar ratio streptomycin:ligand 1:3
[12] = molar ratio streptomycin:ligand 1:1
[13] = administered 0 min after inoculation of phosphorylcholine, different sites, 1:3, 1000 mg/kg s.c.
[14] = administered 10 min after inoculation of phosphorylcholine, different sites, 1:3, 1000 mg/kg s.c.
[15] = administered 30 min after inoculation of phosphorylcholine, different sites, 1:3, 1000 mg/kg s.c.
[16] = streptomycin alone (control), 1000 mg/kg s.c.

Compound: C[C@@H]1[C@H](O)[C@@H](C)/C=C/C=C/C=C/C=C/C=C/C=C/C=C/[C@H](O[C@@H]2O[C@H](C)[C@@H](O)[C@H](N)[C@@H]2O)C[C@@H]2O[C@](O)(C[C@@H](O)C[C@@H](O)[C@H](O)CC[C@@H](O)C[C@@H](O)CC(=O)O[C@H]1C)C[C@H](O)[C@H]2C(=O)O [Amphotericin B, amphotericin B]
- Affinity for ergosterol relative to cholesterol [1]: approximately ten times greater
- Stability of complex on removal of PEG-cholesterol [2]: precipitation of amphotericin B in the aqueous phase

Compound: C[N+](C)(C)CCO.[Cl-] [Choline chloride, choline chloride]
- Lethality of ligand administered without streptomycin (Swiss Webster mice [3]): 0/8
- Lethality No. Dead/No. Inoculated (Swiss Webster mice [3]; [11]): 7/7
- mortality (in vivo): 100%

Compound: C[C@H](CCC(=O)O)[C@H]1CC[C@H]2[C@@H]3CC[C@@H]4C[C@H](O)CC[C@]4(C)[C@H]3C[C@H](O)[C@]12C [DOC, deoxycholate]
- Appearance of blue tail (in words) (Swiss Webster mice [4]): limited blue tail effect
- Minimum Inhibitory Concentration of Amphotericin B, C. albicans (C. albicans): > 5,000 μg/ml
- CC50 at 72 h [5]: 250 µg/mL (≈ 637 µM)

Compound: O=P(O)(O)O[C@@H]1[C@@H](O)[C@H](O)[C@@H](O)[C@H](O)[C@@H]1O [Inositol monophosphate, inositol monophosphate]
- Lethality No. Dead/No. Inoculated (Swiss Webster mice [3]; [12]): 5/8
- mortality (in vivo): 62.5%

Compound: O=C(O)C(O)COP(=O)(O)O (stereo not shown) [Phosphoglyceric acid, phosphoglyceric acid]
- Lethality No. Dead/No. Inoculated (Swiss Webster mice [3]; [11]): 3/8
- mortality (in vivo): 37.5%

Compound: C[N+](C)(C)CCOP(=O)([O-])O [Phosphorylcholine, phosphorylcholine]
- mortality (in vivo): 0%

Compound: NCCOP(=O)(O)O [Phosphorylethanolamine, phosphorylethanolamine]
- Lethality of ligand administered without streptomycin (Swiss Webster mice [3]): 0/7
- Effectiveness in reducing aminoglycoside toxicity (in words) (Swiss Webster mice [3]): less effective
- Lethality No. Dead/No. Inoculated (Swiss Webster mice [3]; [11]): 4/7
- Binding to C-reactive protein (in words) (C-reactive protein): bind less strongly

Compound: NC(COP(=O)(O)O)C(=O)O (stereo not shown) [Phosphorylserine, phosphorylserine]
- Lethality No. Dead/No. Inoculated (Swiss Webster mice [3]; [11]): 4/8
- mortality (in vivo): 50%

Compound: [H]/N=C(/N)N[C@H]1[C@H](O)[C@@H](O)[C@H](O[C@@H]2O[C@@H](C)[C@](O)(C=O)[C@H]2O[C@@H]2O[C@@H](CO)[C@H](O)[C@@H](O)[C@@H]2NC)[C@@H](N/C(N)=N\[H])[C@@H]1O [Streptomycin, streptomycin]
- mortality [6, 13]: 62.5%
- mortality [6, 14]: 62.5%
- mortality [6, 15]: 85.7%
- mortality [6, 16]: 87.5%
- Reduction of aminoglycoside toxicity (in words) (Swiss Webster mice [7]; 0.6M ammonium acetate, or ligand administered before the aminoglycoside): not effective in reducing toxicity
- Lethality No. Dead/No. Inoculated (Swiss Webster mice [7]; [13]): 5/8
- Lethality No. Dead/No. Inoculated (Swiss Webster mice [7]; [14]): 5/8
- Lethality No. Dead/No. Inoculated (Swiss Webster mice [7]; [15]): 6/7
- Lethality No. Dead/No. Inoculated (Swiss Webster mice [7]; [16]): 7/8

Compound: COc1cccc2c1C(=O)c1c(O)c3c(c(O)c1C2=O)C[C@@](O)(C(=O)CO)C[C@@H]3O[C@H]1C[C@H](N)[C@H](O)[C@H](C)O1 [adriamycin]
- Association constant cardiolipin/adriamycin [8]: about 1.6×10^6 mol^-1
- Association constant DNA/adriamycin (DNA): about 2.4×10^6 mol^-1

Compound: N.N.[Cl][Pt][Cl] [cisplatin]
- Binding to guanosine and related inosine derivatives (in words) [9]: strong binding

Compound: C[N+](C)(C)CCOP(=O)([O-])OCC(O)CO (stereo not shown) [glycerolphosphorylcholine]
- Effectiveness in reducing aminoglycoside toxicity (in words) (Swiss Webster mice [3]): less effective
- Binding to C-reactive protein (in words) (C-reactive protein): bind less strongly

Compound: O=S(=O)(O)OC1C(OS(=O)(=O)O)C(OS(=O)(=O)O)C(OS(=O)(=O)O)C(OS(=O)(=O)O)C1OS(=O)(=O)O (stereo not shown) [inositol hexasulfate]
- Precipitation when mixed with the aminoglycoside [10]: precipitated out of solution

Compound: NC[C@H]1O[C@H](O[C@H]2[C@H](O)[C@@H](O[C@H]3O[C@H](CO)[C@@H](O)[C@H](N)[C@H]3O)[C@H](N)C[C@@H]2N)[C@H](O)[C@@H](O)[C@@H]1O [kanamycin]
- Neuromuscular reactions (in words) (neuromuscular junction): particularly

Compound: NC[C@@H]1O[C@H](O[C@H]2[C@@H](O)[C@H](O[C@@H]3[C@@H](O)[C@H](N)C[C@H](N)[C@H]3O[C@H]3O[C@H](CO)[C@@H](O)[C@H](O)[C@H]3N)O[C@@H]2CO)[C@H](N)[C@@H](O)[C@@H]1O [paromomycin]
- Neuromuscular reactions (in words) (neuromuscular junction): to a lesser extent

Compound: NC[C@H]1O[C@H](O[C@H]2[C@H](O)[C@@H](O[C@H]3O[C@H](CO)[C@@H](O)[C@H](N)[C@H]3O)[C@H](N)C[C@@H]2N)[C@H](N)C[C@@H]1O [tobramycin]
- Neuromuscular reactions (in words) (neuromuscular junction): to a lesser extent

Compound: NCCC[C@H](N)CC(=O)N[C@H]1CNC(=O)[C@H]([C@H]2C[C@H](O)NC(N)=N2)NC(=O)/C(=C/NC(N)=O)NC(=O)[C@H](CO)NC(=O)[C@H](CO)NC1=O [viomycin] (β3hOrn-[Dap]SS[ΔAla(Z-3-ureido)][X1]; lactam 1-C)
- Neuromuscular reactions (in words) (neuromuscular junction): to a lesser extent

Compound: egg phosphatidic acid
- Precipitation when mixed with the aminoglycoside [10]: precipitated out of solution

Compound: gentamycin
- Nephrotoxicity (in words) (kidney): most nephrotoxic of the commonly used drugs
- Neuromuscular reactions (in words) (neuromuscular junction): to a lesser extent

Compound: lysophosphatidylcholine [Egg Lysophosphatidylcholine]
- Lethality No. Dead/No. Inoculated (Swiss Webster mice [3]; [12]): 0/7
- Percent Lethality (Swiss Webster mice [3]; [12]): 0%
- Percent Lethality (Swiss Webster mice [3]; [11]): 0%
- Binding to C-reactive protein (in words) (C-reactive protein): bind strongly

Compound: neomycin
- Nephrotoxicity (in words) (kidney): the most nephrotoxic aminoglycoside
- Neuromuscular reactions (in words) (neuromuscular junction): particularly

Compound: polyethylene glycol-cholesterol [PEG-cholesterol]
- Minimum Inhibitory Concentration of Amphotericin B, C. albicans (C. albicans): > 25,000 μg/ml
- Minimum Inhibitory Concentration of Amphotericin B, L cells (L cells): > 500.0 µg/mL
